In article PMC12209437, “Tailoring a novel colorectal cancer stem cell-targeted therapy by inhibiting the SMYD3/c-MYC axis” (Signal Transduction and Targeted Therapy, 2025):

Biological target: T1, full-length HIS-tagged SMYD3 recombinant protein (human, UniProt Q9H7B4 1-428)
T1 construct: SMYD3 (lysine methyltransferase SET and MYND Domain Containing 3), full length, from the plasmid pET28-MHL-SMYD3 (Addgene 32048); no species is printed for the Addgene plasmid; also called HIS-SMYD3; HIS-SMYD3 fusion protein; source: E. coli BL21 (DE3), purified (Dynabeads HIS-Tag Isolation and Pulldown)
T1 sequence (looked up): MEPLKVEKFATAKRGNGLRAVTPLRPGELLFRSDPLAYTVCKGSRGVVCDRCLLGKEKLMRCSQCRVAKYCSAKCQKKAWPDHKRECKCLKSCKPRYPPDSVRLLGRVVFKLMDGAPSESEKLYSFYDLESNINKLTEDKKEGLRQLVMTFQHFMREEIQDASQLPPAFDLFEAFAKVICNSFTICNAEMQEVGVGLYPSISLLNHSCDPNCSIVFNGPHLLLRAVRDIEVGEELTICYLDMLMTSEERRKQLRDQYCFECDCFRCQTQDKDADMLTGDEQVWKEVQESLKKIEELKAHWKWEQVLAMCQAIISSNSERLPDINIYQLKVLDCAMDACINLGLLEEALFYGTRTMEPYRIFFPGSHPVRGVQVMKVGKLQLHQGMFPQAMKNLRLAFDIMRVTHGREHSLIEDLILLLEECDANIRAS
Test: pull-down; HIS-SMYD3 incubated with recombinant c-MYC or FLAG c-MYC fragments for 1 h at 4 °C, precipitated with Dynabeads HIS-Tag Isolation and Pulldown, washed in buffer A (20 mM Tris-HCl pH 8, 150 mM KCl, 5 mM MgCl2, 0.2 mM EDTA, 10% glycerol, 0.1% NP-40, 1 mM DTT), immunoblot
Settings: both partners purified

B1: FLAG c-MYC M1 ([…]) (domain or fragment)
chain: not shown
notes: amplified from p3xFLAG CMV14 c-MYC-WT, itself made from pcDNA3-c-MYC (Addgene 16011); Vector p3xFLAG-CMV14 (Sigma E7908); also called p3xFLAG CMV14 c-MYC-M1
B1: binds.
